This is an account of results in article PMC12136788.

T1: UNK ZnF1-3 (human, UniProt Q9C0B0 31-174)
T1 sequence: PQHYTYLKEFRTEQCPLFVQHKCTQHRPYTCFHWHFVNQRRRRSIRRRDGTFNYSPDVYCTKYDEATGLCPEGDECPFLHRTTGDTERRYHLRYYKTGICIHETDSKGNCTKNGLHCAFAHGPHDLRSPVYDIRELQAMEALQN

B1: chr6:79679595:79679596:-_ENSG00000146247_ENST00000275034|hu_hu|FALSE|FALSE (ssRNA)
RNA: GGGAGUUCUACAGUCCGACGAUCUAUAUUCCAUCGCCUGUAUUUUGCAUCAUCAAAUUGUUGUCUCAAGACUAGGAAAUCUAUAACGUCAGGCAUAUCAUGGUAUUUCAUGGUAAAUGAUCCGCCAGUCAGUUUACCAGUAUCCAACAGAGGAUUGAGCAUCA
B2: chr2:179515052:179515053:+_ENSMUSG00000000305_ENSMUST00000000314|mus_hu|mus_mus_mus_hu_False|1_1 (ssRNA)
RNA: GGGAGUUCUACAGUCCGACGAUCGCUGUCCCAUGCAGUCACCGUGAACGCCACCUGCUCGGAGGGGACCUGCAGCUCCCGGGUGGCGAAGACUGUCCCAUCUGCCCCAACUUUGAAGUCCAUGCUGUUGGUCUCAUACUGCAUCAACAGAGGAUUGAGCAUCA
B3: chr4:115747634:115747635:-_ENSMUSG00000063882_ENSMUST00000078676|mus_hu|FALSE|FALSE (ssRNA)
RNA: GGGAGUUCUACAGUCCGACGAUCAGAUUCAACACGAGCAGCAACAGCGGCACCUAACCCAGUUCAGGAUCAAGAAGGACUUGUAAGGGUCACUCAGCGGAAAUCCGGCGAUCUGGCCGGAAGUGCGGCACACUCAUCGUGGUCCAACAGAGGAUUGAGCAUCA
B4: chr8:122032151:122032152:-_ENSMUSG00000031835_ENSMUST00000081381|mus_hu|FALSE|FALSE (ssRNA)
RNA: GGGAGUUCUACAGUCCGACGAUCCAAUGGUGAAAUCAAGACCUCAAAUUACAAAACAUGGUGGCAGGUGAUACUUACAAAAAUAAAGCGAAGGUCUAUGUUUUACAGAUUUGUGCAUGUUUCCUUCAAAUCUCAGUCUGUACUCAACAGAGGAUUGAGCAUCA
B5: 36102013_36107042_463_CDS_ENSG00000126067_ENST00000373237|human|control|control (ssRNA)
RNA: GGGAGUUCUACAGUCCGACGAUCCUUAAACAUCUUGUCAUGAUCGUCCUUCAUCUGGACAAUAUUGCUGGCGGCCACCCGGUCGGAGGCGACAAGAACAUAGUCGGGGCCUUGGAUACCGAUGAGGUACUCCAUGGUGGCGGACAACAGAGGAUUGAGCAUCA
B6: chr16:23109248:23109249:+_ENSMUSG00000022884_ENSMUST00000115341|mus_mus|FALSE|FALSE (ssRNA)
RNA: GGGAGUUCUACAGUCCGACGAUCAAGAGCCAAAAUUACCUUUUGGAUCUGUUGAGCCAGUUCUCUGGUGGGGGCCAAUACUAGUGCUUGGGUCUCCUUGAACUCAAUCUCCAACUGUUGCAGGAUGGAAAUAGCAAAUGUGGCCAACAGAGGAUUGAGCAUCA

The list shows a part of the results.

The target in this assay is T1, UNK ZnF1-3. The assay is described as follows: nsRBNS (natural sequence RNA bind-n-seq); RBNS binding buffer (assumed for nsRBNS): 25 mM Tris pH 7.5, 150 mM KCl, 3 mM MgCl2, 0.01% Triton X-100, 500 ug/ml BSA, 20 U/ml SUPERase-In, 4 C; UNK is unkempt and MSI1 is Musashi-1; names of the RNAs are library labels; protein concentration not given here; high values mean tight binding.
B1 gave a binding signal of 1.13 enrichment R.

In turn, B2 had a binding signal of 0.721 enrichment R.

Turning to B3, the binding signal came to 1.9 enrichment R.

Molecule B4 yielded a binding signal of 1.12 enrichment R.

In turn, B5 gave a binding signal of 0.554 enrichment R.

In the case of B6, the binding signal came out at 1.31 enrichment R.
